Test results from a collection of fitness landscapes (doi:10.1126/science.1257360).
The list shows a part of the results.

B1: PhoQ; a variant is named by its letters at X, in order, P23837 (parent)
chain: MKKLLRLFFPLSLRVRFLLATAAVVLVLSLAYGMVALIGYSVSFDKTTFRLLRGESNLFYTLAKWENNKLHVELPENIDKQSPTMTLIYDENGQLLWAQRDVPWLMKMIQPDWLKSNGFHEIEADVNDTSLLLSGDHSIQQQLQEVREDDDDAEMTHSVAVNVYPATSRMPKLTIVVVDTIPVELKSSYMVWSWFIYVLSANLLLVIPLLWVAAWWSLRPIEALAKEVRELEEHNRELLNPATTRELTSLVRNLNRLLKSERERYDKYRTTLTDLTHSLKTPLXXLQXXLRSLRSEKMSVSDAEPVMLEQISRISQQIGYYLHRASMRGGTLLSRELHPVAPLLDNLTSALNKVYQRKGVNISLDISPEISFVGEQNDFVEVMGNVLDNACKYCLEFVEISARQTDEHLYIVVEDDGPGIPLSKREVIFDRGQRVDTLRPGQGVGLAVAREITEQYEGKIVAGESMLGGARMEVIFGRQHSAPKDE

Variants of: B1
Experiment: enrichment ratio after two sorts for PhoP signalling (ratio (wild type AVST 3.29)); higher = more functional
Details: with PhoP (E. coli)

Row | Variant | enrichment ratio
1 | KCQL | ≤ 0.25
2 | QADH | 0.951
3 | SSMD | 3.52
4 | LCML | 4.84
5 | RSNP | ≤ 0.25
6 | HMQD | ≤ 0.25
7 | FCGC | ≤ 0.25
8 | RGMG | ≤ 0.25
9 | EKGR | ≤ 0.25
10 | LKYL | ≤ 0.25
11 | KAVH | ≤ 0.25
12 | FPMW | ≤ 0.25
13 | QNKL | ≤ 0.25
14 | IKCH | ≤ 0.25
15 | SNKK | ≤ 0.25
16 | SCDR | ≤ 0.25
17 | WDNY | ≤ 0.25
18 | ILVW | ≤ 0.25
19 | TDID | ≤ 0.25
20 | KNVY | ≤ 0.25
21 | KQSD | ≤ 0.25
22 | VYAD | ≤ 0.25
23 | KAPK | ≤ 0.25
24 | IPNC | ≤ 0.25
25 | LDNM | ≤ 0.25

Row | Variant | enrichment ratio
26 | FSID | ≤ 0.25
27 | EDWF | ≤ 0.25
28 | FEAR | ≤ 0.25
29 | PFGF | ≤ 0.25
30 | PSTK | ≤ 0.25
31 | GLHG | ≤ 0.25
32 | AIMI | 5.72
33 | FTPS | ≤ 0.25
34 | HCAW | ≤ 0.25
35 | QVHI | ≤ 0.25
36 | SFLH | ≤ 0.25
37 | FHYL | ≤ 0.25
38 | ISKF | ≤ 0.25
39 | IEPT | ≤ 0.25
40 | TSGY | 14.8
41 | GVQF | ≤ 0.25
42 | NWQH | ≤ 0.25
43 | TQFQ | 9.67
44 | YRTH | ≤ 0.25
45 | VRHY | ≤ 0.25
46 | WNSW | ≤ 0.25
47 | ITMV | 5.93
48 | KTGH | ≤ 0.25
49 | GTLH | 8.02
50 | LESM | ≤ 0.25

Row | Variant | enrichment ratio
51 | WRYH | ≤ 0.25
52 | MKIY | ≤ 0.25
53 | FDAN | ≤ 0.25
54 | GTFQ | ≤ 0.25
55 | YLVI | ≤ 0.25
56 | EFRS | ≤ 0.25
57 | QTYP | ≤ 0.25
58 | TYTT | 0.277
59 | TEGW | ≤ 0.25
60 | TRFN | ≤ 0.25
61 | QVWP | ≤ 0.25
62 | QMQI | ≤ 0.25
63 | QSSC | 10.7
64 | RSFR | ≤ 0.25
65 | SVFN | ≤ 0.25
66 | QFWD | ≤ 0.25
67 | VACM | 1.74
68 | NIHV | ≤ 0.25
69 | WKFK | ≤ 0.25
70 | LPPW | ≤ 0.25
71 | DRVM | ≤ 0.25
72 | HMEW | ≤ 0.25
73 | TKWE | ≤ 0.25
74 | KDWP | ≤ 0.25
75 | DAPT | ≤ 0.25

Row | Variant | enrichment ratio
76 | AQYT | ≤ 0.25
77 | GKDG | ≤ 0.25
78 | SFVE | ≤ 0.25
79 | KVRY | ≤ 0.25
80 | AGQL | 11.6
81 | QLEF | ≤ 0.25
82 | MEGI | ≤ 0.25
83 | CLVY | ≤ 0.25
84 | EFSR | ≤ 0.25
85 | WVER | ≤ 0.25
86 | FSEH | ≤ 0.25
87 | VSES | ≤ 0.25
88 | SLSI | 12.7
89 | PDPM | ≤ 0.25
90 | ASMG | 17.6
91 | FPMY | ≤ 0.25
92 | FTKQ | ≤ 0.25
93 | YYWS | ≤ 0.25
94 | HEWN | ≤ 0.25
95 | ILRM | ≤ 0.25
96 | GFLP | ≤ 0.25
97 | YWTV | ≤ 0.25
98 | WFMS | ≤ 0.25
99 | SPHM | ≤ 0.25
100 | IWLP | ≤ 0.25

Row | Variant | enrichment ratio
101 | LRHR | ≤ 0.25
102 | FDIW | ≤ 0.25
103 | QLMN | ≤ 0.25
104 | ALPW | ≤ 0.25
105 | DESD | ≤ 0.25
106 | AKLC | 3.66
107 | VNVA | ≤ 0.25
108 | QMHR | ≤ 0.25
109 | VYVA | ≤ 0.25
110 | SYDK | ≤ 0.25
111 | FSDE | ≤ 0.25
112 | KIRS | 0.8
113 | SHSP | ≤ 0.25
114 | KENR | ≤ 0.25
115 | QDAN | ≤ 0.25
116 | HKGG | ≤ 0.25
117 | LTNI | ≤ 0.25
118 | ADES | ≤ 0.25
119 | ESPP | ≤ 0.25
120 | HIIM | ≤ 0.25
121 | WKCQ | ≤ 0.25
122 | RQPR | ≤ 0.25
123 | AQHK | ≤ 0.25
124 | MQYA | ≤ 0.25
125 | YPVP | ≤ 0.25

Row | Variant | enrichment ratio
126 | RDGC | ≤ 0.25
127 | FAHF | ≤ 0.25
128 | QQHM | ≤ 0.25
129 | GQDL | ≤ 0.25
130 | VCDH | ≤ 0.25
131 | FLLT | ≤ 0.25
132 | TTEN | 5.63
133 | YEWH | ≤ 0.25
134 | RMRS | ≤ 0.25
135 | KHIP | ≤ 0.25
136 | NFRM | ≤ 0.25
137 | LDIG | ≤ 0.25
138 | IYQS | ≤ 0.25
139 | LFLY | ≤ 0.25
140 | SWGN | ≤ 0.25
141 | MACT | ≤ 0.25
142 | PPMG | ≤ 0.25
143 | FTSE | ≤ 0.25
144 | VKGR | ≤ 0.25
145 | IFLF | ≤ 0.25
146 | YIVD | ≤ 0.25
147 | PAGI | ≤ 0.25
148 | FKAA | ≤ 0.25
149 | PFQY | ≤ 0.25
150 | MPME | ≤ 0.25

Row | Variant | enrichment ratio
151 | QNQY | ≤ 0.25
152 | DINI | ≤ 0.25
153 | IHAM | ≤ 0.25
154 | AANI | ≤ 0.25
155 | IVII | ≤ 0.25
156 | NPEK | ≤ 0.25
157 | FAKY | ≤ 0.25
158 | PQCE | ≤ 0.25
159 | PAFQ | ≤ 0.25
160 | AGGK | ≤ 0.25
161 | VKML | ≤ 0.25
162 | MMFV | ≤ 0.25
163 | RMPK | ≤ 0.25
164 | WPDN | ≤ 0.25
165 | SSDA | ≤ 0.25
166 | YWIM | ≤ 0.25
167 | TGFM | 6.75
168 | SHME | ≤ 0.25
169 | ICCR | ≤ 0.25
170 | LIES | ≤ 0.25
171 | DSRG | ≤ 0.25
172 | SEWH | ≤ 0.25
173 | AQVY | 2
174 | AGNV | ≤ 0.25
175 | SFHW | ≤ 0.25

Row | Variant | enrichment ratio
176 | QEHT | 9.94
177 | QPAT | ≤ 0.25
178 | PWKT | 0.549
179 | GKVH | ≤ 0.25
180 | MLEL | ≤ 0.25
181 | NPAG | ≤ 0.25
182 | DVGP | ≤ 0.25
183 | LAFP | ≤ 0.25
184 | HADH | ≤ 0.25
185 | TAWE | 24.5
186 | NIVT | ≤ 0.25
187 | FQET | ≤ 0.25
188 | HNRT | ≤ 0.25
189 | VRPN | ≤ 0.25
190 | NKNL | ≤ 0.25
191 | WKSD | ≤ 0.25
192 | DFQE | ≤ 0.25
193 | RTMR | ≤ 0.25
194 | ERGF | ≤ 0.25
195 | LYQV | ≤ 0.25
